B1: chr7:140404665:140404666:+_ENSG00000090266_ENST00000247866|hu_hu|hu_hu_hu_mus_False|1_78 (ssRNA)
RNA: GGGAGUUCUACAGUCCGACGAUCUGCUCCUACUCGUCCAGAGAGUUUACAGUGUCAGUCUUCAUCAUCAGGAGGGAUUCCCAGUUCUUCAUCUGUCCACUGUGAAGGAUCUGGAUAUGAAAAGUGACCCAGCACAGCUUCUGACAACAGAGGAUUGAGCAUCA
B2: chr6:31383068:31383069:+_ENSMUSG00000025609_ENSMUST00000026699|mus_mus|FALSE|FALSE (ssRNA)
RNA: GGGAGUUCUACAGUCCGACGAUCAGCUUUUUCAAUCAACUCCUCGCAAGCAUCAAAGUCACCCUUUAACACCAAUUUGUCAUGCAUAUCUGUCAACAUUGGAUGUUCCAGUGCAAUCUUGGUUUUCUUCUGCAGGGAUUCAAACAACAGAGGAUUGAGCAUCA
B3: chr4:115894766:115894767:+_ENSMUSG00000028698_ENSMUST00000030464|mus_hu|mus_mus_mus_hu_True|38_68 (ssRNA)
RNA: GGGAGUUCUACAGUCCGACGAUCUUCCACACGGAAAUGUACUUCGGGUUUUCCAACGGCCAGUACCGUCCAGCCAAAACUACCCGAACAGGGUCCUGUCCUCCUCUCCUACAGAACACAACAAAAUGCCCCCGAACUUUCAAGCAACAGAGGAUUGAGCAUCA
B4: chr1:163295886:163295887:+_ENSG00000143228_ENST00000271452|hu_mus|FALSE|FALSE (ssRNA)
RNA: GGGAGUUCUACAGUCCGACGAUCGGUUUUUGCCAUCUGCUCCUGUUAAUAAUUUAUUGCGAAUAUGAACCACAAGCUCAGCUACAUUGUAUCUGGGGAAUGACAAAGUUUCCAUUAUGGGAGUCUCCUCCCUGAGUAUUGUUGCAACAGAGGAUUGAGCAUCA
B5: chr3:33703679:33703680:+_ENSMUSG00000027677_ENSMUST00000099153|mus_mus|motif|central (ssRNA)
RNA: GGGAGUUCUACAGUCCGACGAUCUUCUAACUGCCCUCCCCUUUCUACAAGUGUCUGGCAGAGAUAUUUCCUUGCAUUCCGGUGAGUUGGGCAGUUUUCUAAUGCGAGCUCAAAAUCUUCUAUUGCUUUGUUUAGACUUCCUUUCAACAGAGGAUUGAGCAUCA
B6: chr14:70590854:70590855:-_ENSMUSG00000022091_ENSMUST00000022682|mus_hu|FALSE|FALSE (ssRNA)
RNA: GGGAGUUCUACAGUCCGACGAUCGAAGUCAAACUUGAGCCUGGCGGCCUUUCUCUUCUUCUCUUCCCUCCUGGCUGGGCUGCCCCCUCCGUUAGAGGCACUAGGGUCUCGGGUUGAGGAAGGGUAGACAAAGUCCCUCCGACCCAACAGAGGAUUGAGCAUCA
B7: chr13:31722580:31722581:-_ENSG00000120694_ENST00000320027|hu_mus|FALSE|FALSE (ssRNA)
RNA: GGGAGUUCUACAGUCCGACGAUCCGAGUCGUGGUUCCAGACCAGAGAUAUUGGAAAAGGAACUGCAUCGGUGACAGAGAACUCUCUAACUUUAAAUGCCGGAGAAAGAAUUGCACACUGCAGUGCACAGCCUCUGGCCACAGCCAACAGAGGAUUGAGCAUCA
B8: chr8:126036873:126036874:-_ENSG00000164961_ENST00000318410|hu_hu|FALSE|FALSE (ssRNA)
RNA: GGGAGUUCUACAGUCCGACGAUCAUGAGCAACUGAGUUUCUUUUCAUCUUCAAAUUCAUUUGUGAUGGUGGGAAGAUCUAAGGACAAUCCUUCCAUUGAAGAAGUAGGAAAAACAGUUACAGCACUGUUCUGAACUCAUCAAACAACAGAGGAUUGAGCAUCA
B9: chr7:54823571:54823572:-_ENSG00000132432_ENST00000352861|hu_mus|hu_hu_hu_mus_False|98_108 (ssRNA)
RNA: GGGAGUUCUACAGUCCGACGAUCUCCCAUUAUAGCAAAUCCUAUUGCUGUAGCCAUGGCAAUCUUCUGGAAUUCUUUUCUGUCGGGUUUGGUGCAUCUUUUAACCAGCCGAAUUGAGUCCUUUACAAACUGCCGGCUGGGCUCCAACAGAGGAUUGAGCAUCA
B10: chr10:120825051:120825052:-_ENSG00000107581_ENST00000369144|hu_hu|motif|central (ssRNA)
RNA: GGGAGUUCUACAGUCCGACGAUCAUCCAGAAGUCGAGCAAUAUCCGUACGCUCAGGAGUAAUAGGGAUGGAAAGAGUGGCGGAAAGGACUCUAGUAGACAUUCUUUGCAUCUCAUCUUGUGUGAGAUUCUUUCUCAUUUCUCUCAACAGAGGAUUGAGCAUCA
B11: chr1:6324473:6324474:-_ENSG00000097021_ENST00000608083|hu_hu|FALSE|FALSE (ssRNA)
RNA: GGGAGUUCUACAGUCCGACGAUCCAACGCCUCCCGGCGCUCGGGACAACACUGUGUAGCAUUGAUACUGGAAUGAUAUAAAUAAAGCUUUGGUGUGUAGGUUUGCAGGAGAGAGUACAGGUUAACACUGUGAUACGAAAACUUCAACAGAGGAUUGAGCAUCA
B12: chr2:42510052:42510053:+_ENSG00000143924_ENST00000318522|hu_mus|motif|central (ssRNA)
RNA: GGGAGUUCUACAGUCCGACGAUCACAGUCUGUAUGACCCAGGUAGUGUCGCUGAGUCCUCUCCUCAUAAUUAAACAGGACGGCCACUGAGGCGAUAAAAUAAACUAUCUCCCCUGUGGGAAGCAGGUAUACAUUCGCUCUACACAACAGAGGAUUGAGCAUCA
B13: chr12:17277247:17277248:+_ENSMUSG00000020571_ENSMUST00000057288|mus_mus|FALSE|FALSE (ssRNA)
RNA: GGGAGUUCUACAGUCCGACGAUCAAUUUGAUGGCGUCAACUCGAUGACAUCAUCACUAGAAGAAUACAGACCGCUGACUGCUAGAAAGAAGGUGCAGCUCACCAGACCGAGCACCAGGCGAGCCAUGCCGAUCACCCGCAUUCCAACAGAGGAUUGAGCAUCA
B14: chr8:126036873:126036874:-_ENSG00000164961_ENST00000318410|hu_hu|motif|central (ssRNA)
RNA: B8 RNA with U79G, A80G
B15: chr7:16573483:16573484:-_ENSMUSG00000070808_ENSMUST00000094821|mus_mus|FALSE|FALSE (ssRNA)
RNA: GGGAGUUCUACAGUCCGACGAUCUGGUGCUGCAGCUGUGAGGAUCUGGCCUCCCACGUUGGCAGGCAGUGCAGAGAGUGACUGAGGGAGUUGUACGGCUGGGGUGCCUGGCAGCAAGAACUGGUUCUGGCCAGGCAGCAUGUGCAACAGAGGAUUGAGCAUCA
B16: 133248640_133250631_109_3pUTR_ENSMUSG00000000131_ENSMUST00000171861|mouse|control|control (ssRNA)
RNA: GGGAGUUCUACAGUCCGACGAUCUCAGAGUCUCCAAGUAGAAGAGAUUUUGUUUGAACAGGUGGAUGUCAGGCUGAAGAAAGGACUGUCCAAAAGCCUGCAUGAUGGCACUGAACUGGGGCUCAUUCUCCAUCUGCUCCUCAGCAACAGAGGAUUGAGCAUCA
B17: chr4:25749455:25749456:-_ENSG00000091490_ENST00000264868|hu_hu|hu_hu_hu_mus_False|98_108 (ssRNA)
RNA: GGGAGUUCUACAGUCCGACGAUCGCAAGCACUAGGACCCUAGAAAACACAGGGGGAAAAAAUGUAAACCAAUGUACAAUGUUAUCGCCUUCCCUGUGUGUGGAGUGUUUGUCUCAAGGCUCCUUCUAGCUGCUGGAUUUGGGACAACAGAGGAUUGAGCAUCA
B18: chr17:73774773:73774774:-_ENSG00000132475_ENST00000586270|hu_hu|FALSE|FALSE (ssRNA)
RNA: GGGAGUUCUACAGUCCGACGAUCUUUGGGCAUGAUGGUGACUCUCUUAGCGUGGAUGGCACACAGGUUGGUAUCUUCGAACAGACCCACCAGGUACGCUUCGCUAGCCUCCUGCAGCGCACCGAUGGCUGCGCUCUGAAACCUCAACAGAGGAUUGAGCAUCA
B19: chr2:73746717:73746718:-_ENSMUSG00000018770_ENSMUST00000018914|mus_hu|FALSE|FALSE (ssRNA)
RNA: GGGAGUUCUACAGUCCGACGAUCCAAAAUCAAGAAAGCAACCAUCAAACAAAAGAGACCCAUAGCUUCAGACAAGGCAAAUCCCAGGAUAGCAUAUGAGAACAGCUGCUGCUUCAGCGAAGGGUUUCUGGCAUAACCAAUGAUCAACAGAGGAUUGAGCAUCA
B20: 25286587_25286707_895_CDS_ENSMUSG00000054793_ENSMUST00000068023|mouse|control|control (ssRNA)
RNA: GGGAGUUCUACAGUCCGACGAUCCGCCUCGCAGGUGUAGGUGCCGUUAUCUGCAGAUACCAGGCCAGGUAGCGUGAGCGUCUCGCCCACCGCCUCCGCCCUCUCUGGCAGAGACUCAUUCCCACGGUUCCAGCGGAUCUGGUUCAACAGAGGAUUGAGCAUCA
B21: chr5:46091440:46091441:-_ENSMUSG00000015882_ENSMUST00000045586|mus_mus|motif|central (ssRNA)
RNA: GGGAGUUCUACAGUCCGACGAUCGAUAACUUUACCACAAUGGGUAAUUUCUCUUCCUAAAUUUUUCUAUGUAGGAACACGGUUUUAUGAAUGAAUUCUAGAUUAGGGUGCUGCCCACACACACAUUAAUCAUGAAAGAUACAUCAACAGAGGAUUGAGCAUCA
B22: chr4:136884974:136884975:-_ENSMUSG00000006699_ENSMUST00000030417|mus_hu|FALSE|FALSE (ssRNA)
RNA: GGGAGUUCUACAGUCCGACGAUCCACCCACUUUUCUUUCACGUUUUCAAAUGAAGAUGGAGAGACCACUGAAAAACAGACUAGAAAUACAUCUGUUUGUGGAUAACUCAGCGGUCGUAAUCUGUCAUAAUCCUCUUGCCCUGCCAACAGAGGAUUGAGCAUCA

Substitutions are numbered along the chain they refer to. This is one part of the list.

In this test the target is T1, UNK ZnF1-3 (human, UniProt Q9C0B0 31-174).
T1 sequence: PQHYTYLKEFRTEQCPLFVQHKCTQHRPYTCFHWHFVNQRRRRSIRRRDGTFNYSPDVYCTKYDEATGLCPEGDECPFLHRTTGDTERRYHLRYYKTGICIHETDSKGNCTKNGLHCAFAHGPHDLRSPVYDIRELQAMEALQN
The test can be described thus: nsRBNS (natural sequence RNA bind-n-seq); RBNS binding buffer (assumed for nsRBNS): 25 mM Tris pH 7.5, 150 mM KCl, 3 mM MgCl2, 0.01% Triton X-100, 500 ug/ml BSA, 20 U/ml SUPERase-In, 4 C; UNK is unkempt and MSI1 is Musashi-1; names of the RNAs are library labels; protein concentration not given here; high values mean tight binding.
B1 displayed a binding signal of 1.35 enrichment R.
The value for B2 was 0.79 enrichment R; that for B3 was 0.951 enrichment R; that for B4 was 0.872 enrichment R.
Then B5, with 0.31 enrichment R.
In turn, B6 showed a binding signal of 1.06 enrichment R.
Then B7, with 0.872 enrichment R.
Then B8, with 0.767 enrichment R; and B9, with 0.602 enrichment R; and B10, with 0.965 enrichment R.
Molecule B11 had a binding signal of 1.38 enrichment R.
Then B12, with 1.08 enrichment R; and B13, with 0.986 enrichment R; and B14, with 1.13 enrichment R.
Turning to B15, the binding signal came to 0.949 enrichment R.
The value for B16 was 0.988 enrichment R; that for B17 was 1.13 enrichment R.
Then B18, with 0.712 enrichment R; and B19, with 1.39 enrichment R.
Then B20, with 0.578 enrichment R.
Turning to B21, the binding signal was found to be 0.594 enrichment R.
The value for B22 was 1.12 enrichment R.

Source of the values: article PMC12136788.
